Measurements published in PubChem BioAssay AID652104 (National Center for Advancing Translational Sciences (NCATS), 2013).
Screen size: about 410,000 compounds; about 7,200 (1.8%) were called active. The inconclusive results got no clear call from the source; some entries with a clear call stand among them for comparison. Calls come from the whole dose curve; as a rule, active = well fitted activation curve with a large enough effect; inconclusive = small, poorly fitted or top-dose-only effect, or another doubt; inactive = no such curve, though single readings can be large or run the other way. No potency is given beside an inconclusive call; the fits are too rough.

Assay: qHTS of TDP-43 Inhibitors; note: nearly all actives have a fitted effect of over 50% in size; for growth rescue (activation): % of control where 0% means no effect
Settings: TDP-43 expressing yeast growth rescue, BacTiter-Glo, 24 h; growth rescue (activation): at 46.1 µM (top of the series) unless noted
Outline: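 Yeast cells expressing TDP-43 under galactose induction are exposed to compounds for 24 hr at 30 deg C. BacTiter-Glo luminescence measures growth, so protective compounds score as activators.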
Potency is the fitted concentration of half-maximal effect; tags give direction and shape of the fitted curve.

**Q.** With `Cc1nn2c(C)c(C(=O)NCc3ccco3)cnc2c1-c1ccccc1` as the compound, how does the Potency read?
**A.** inconclusive [activator, partial curve]

**Q.** With `CC(C)CNC(=O)c1ccc(Cl)c(Cl)c1` as the compound, how does the Potency read?
**A.** inconclusive [activator, single point]

**Q.** For `CCn1c(NC(=O)/C=C/c2ccc(F)cc2)nc2ccccc21`, which Potency is on record?
**A.** inconclusive [activator, single point]

**Q.** With `COc1cc2ncnc(NCc3ccccc3C)c2cc1OC` as the compound, how does the Potency read?
**A.** inactive

**Q.** With `COC(=O)N/N=C/c1ccc([N+](=O)[O-])s1` as the compound, how does the Potency read?
**A.** inconclusive [activator, partial curve, poor fit]

**Q.** Which Potency does the source give for `CC1Sc2ccccc2N(Cc2ccccc2)C1=O` (centres undefined) here?
**A.** inconclusive [activator, single point]

**Q.** With `Cc1ccc(Cc2cnc(NC(=O)c3cccs3)s2)cc1` as the compound, how does the Potency read?
**A.** inconclusive [activator, single point]

**Q.** With `COc1cccc(-c2ccc(C3=CC(=O)CC(C)(C)C3=O)cc2)c1OC` as the compound, how does the Potency read?
**A.** inconclusive [activator, partial curve, poor fit]

**Q.** With `COCCCNc1nc(NCc2cccc(Cl)c2)c2cnn(C)c2n1` as the compound, how does the Potency read?
**A.** inconclusive [activator, partial curve]

**Q.** For `O=c1c2c(c(-c3ccccc3)nn1Cc1ccccc1)CCCC2`, which Potency is on record?
**A.** inconclusive [activator, partial curve]

**Q.** Which Potency does the source give for `CSc1ccc(CCNS(=O)(=O)c2ccc3c(c2)C(C)(C)C(=O)N3C)cc1` here?
**A.** inconclusive [activator, single point]

**Q.** With `O=C(CSc1nc2nc(-c3cccs3)cc(C(F)(F)F)c2c(=O)[nH]1)C(F)(F)F` as the compound, how does the Potency read?
**A.** inactive

**Q.** Which Potency does the source give for `Cc1ccc(C(c2cccc(Br)c2)c2c(C)[nH]c3ccccc23)s1` (centres undefined) here?
**A.** inconclusive [activator, partial curve]

**Q.** Which Potency does the source give for `CC(C)c1ccc(NC(=O)C(C)N(c2ccccc2)S(C)(=O)=O)cc1` (centres undefined) here?
**A.** inconclusive [activator, single point]

**Q.** With `Cc1cccc(OCC(=O)N(Cc2ccc(C(C)(C)C)cc2)Cc2ccco2)c1` as the compound, how does the Potency read?
**A.** inactive

**Q.** Which Potency does the source give for `Nc1ccc(O)cc1C(=O)OCC(=O)C12CC3CC(CC(C3)C1)C2` here?
**A.** inactive

**Q.** With `COc1ccc(-c2c3c(cc(C)[n+]2[O-])oc2ccc(OC)cc23)cc1` as the compound, how does the Potency read?
**A.** inconclusive [activator, single point]

**Q.** For `CCc1ccc(CNC(=O)CN2C(=O)CSc3c2c(C)nn3-c2ccccc2)cc1`, which Potency is on record?
**A.** inconclusive [activator, partial curve]

**Q.** Which Potency does the source give for `CC(=O)c1nc2ccccc2n1Cc1ccccc1` here?
**A.** active: 11.2 µM

**Q.** With `COc1ccc(NC(=O)CC2C(=O)N(c3cccc(C)c3)C(=O)N2Cc2cccnc2)cc1` (centres undefined) as the compound, how does the Potency read?
**A.** inactive

**Q.** With `O=c1[nH]c2ccccc2nc1-c1cccs1` as the compound, how does the Potency read?
**A.** inconclusive [activator, full curve, poor fit]

**Q.** Which Potency does the source give for `COc1ccccc1OCC(=O)Nc1nc2c(s1)CCCC2` here?
**A.** inconclusive [activator, single point]

**Q.** For `Cc1ccc(CNc2ncnc3c2nnn3C)cc1`, which Potency is on record?
**A.** inconclusive [activator, full curve, poor fit]

**Q.** With `O=C(COC(=O)Cc1ccc(Cl)cc1Cl)NCc1ccco1` as the compound, how does the Potency read?
**A.** inconclusive [activator, partial curve]

**Q.** With `CNC(=S)N/N=C(\C)c1ccc(Cl)s1` as the compound, how does the Potency read?
**A.** active: 14.1 µM

**Q.** For `Cc1cccc(NC(=O)NNC(=O)c2ccc3ccccc3c2)c1`, which Potency is on record?
**A.** inconclusive [activator, single point]

**Q.** With `Cn1nc(-c2ccccc2)c2cc([N+](=O)[O-])ccc21` as the compound, how does the Potency read?
**A.** inconclusive [activator, single point]

**Q.** For `Cc1cccc2c1-c1sc(C(=O)N3CCCCC3)cc1CO2`, which Potency is on record?
**A.** inconclusive [activator, single point]

**Q.** With `Cc1cccc(S(=O)(=O)CC(=O)Nc2nc(-c3ccccc3)cs2)c1` as the compound, how does the Potency read?
**A.** inconclusive [activator, single point]

**Q.** Which Potency does the source give for `COc1cc(-c2ccc(NC(=O)CN3CCC(C)CC3)c(OC)c2)ccc1NC(=O)CN1CCC(C)CC1` here?
**A.** inconclusive [activator, partial curve]

**Q.** Which Potency does the source give for `Cc1ccc(C)c(N2CCN(S(=O)(=O)c3ccc4c(c3)NC(=O)CS4)CC2)c1` here?
**A.** inconclusive [activator, partial curve]

**Q.** For `O=C(O)Cn1ccc2cc(S(=O)(=O)N3CCCCC3)ccc21`, which Potency is on record?
**A.** inconclusive [activator, full curve, poor fit]

**Q.** Which Potency does the source give for `Cc1ccc(-c2csc3ncnc(N4CCN(C(=O)c5ccco5)CC4)c23)cc1` here?
**A.** inconclusive [activator, single point]

**Q.** For `O=C(O)CC1S/C(=N/N=C/c2ccc(-c3ccccc3[N+](=O)[O-])o2)NC1=O` (centres undefined), which Potency is on record?
**A.** inconclusive [activator, partial curve]

**Q.** With `CC(Oc1ccc(Cl)cc1)C(=O)Nc1ccccc1N1CCOCC1` (centres undefined) as the compound, how does the Potency read?
**A.** inconclusive [activator, single point]

**Q.** For `COc1ccccc1/C=N/NC(=O)c1ccc(Br)cc1`, which growth rescue (activation) is on record?
**A.** inactive: -6.37% [at 0.397 µM]

**Q.** With `COc1ccc(OC)c(Nc2nc(-c3cccs3)cs2)c1` as the compound, how does the Potency read?
**A.** active: 15.8 µM

**Q.** With `O=C(COc1c(Br)cc(Br)c2cccnc12)Nc1ccccc1F` as the compound, how does the Potency read?
**A.** inactive

**Q.** Which Potency does the source give for `c1ccc(CC2CCN(c3nc4ccccc4n4cnnc34)CC2)cc1` here?
**A.** inconclusive [activator, single point]

**Q.** With `Cc1ccc(-c2csc3ncnc(-n4cnc5ccccc54)c23)cc1` as the compound, how does the Potency read?
**A.** inconclusive [activator, single point]

**Q.** With `O=C1c2ccccc2C(=O)N1OCCOCCOCCON1C(=O)c2ccccc2C1=O` as the compound, how does the Potency read?
**A.** inconclusive [activator, partial curve]

**Q.** With `O=C(O)c1cccc(N/N=C/c2ccc(F)c(F)c2)c1` as the compound, how does the Potency read?
**A.** active: 25.1 µM

**Q.** With `O=[N+]([O-])c1ccc(N2CCCC2)cc1N1CCCC1` as the compound, how does the Potency read?
**A.** active: 15.8 µM

**Q.** Which Potency does the source give for `Cc1ccc(CCNC(=O)c2ccc3c(Cl)c4c(nc3c2)CCCC4)cc1` here?
**A.** inconclusive [activator, full curve]
